Laboratory results as given in the supplement of paper PMC12217912.
The list shows a part of the results. Sequences were assembled here from the parent chain. Values near 0.05 are background.

B1: TEV protease; numbered along this chain (parent)
chain: MGESLFKGPRDYNPISSSICHLTNESDGHTTSLYGIGFGPFIITNKHLFRRNNGTLVVQSLHGVFKVKDTTTLQQHLVDGRDMIIIRMPKDFPPFPQKLKFREPQREERICLVTTNFQTKSMSSMVSDTSCTFPSGDGIFWKHWIQTKDGQCGSPLVSTRDGFIVGIHSASNFTNTNNYFTSVPKNFMELLTNQEAQQWVSGWRLNADSVLWGGHKVFMVKPEEPFQPVKEATQL

Variants of: B1
Assay: raw area under fraction-flipped curve 0-4 h after induction (AUC4h, not background-subtracted), DNA-recorder readout of cleavage of the substrate (dimensionless); higher = more cleavage of the substrate by the protease variant
Conditions: temperature: 34 °C; time window: 0-4 h after rhamnose induction
Description: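 In vivo DNA recorder in E. coli TOP10(DE3) ΔrhaA at 34 °C. Each TEVp single-site mutant (parent TEVp 0) is paired with a single-site variant of the 7-mer TEVs (canonical ENLYFQ|S). The substrate sits between flexible linkers in a Bxb1-sfGFP-TEVs-SsrA fusion, so cleavage stabilises Bxb1 and speeds flipping of a recombination array, read by NGS. The value is the raw area under the fraction-flipped curve over 0-4 h after rhamnose induction (AUC4h), with ≥20 reads per time point. It is not background-subtracted; inactive controls average about 0.047.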
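Also: Bxb1 expression induced with 0.2% (w/v) L-rhamnose at OD600 near 0.5, cultures sampled hourly, flipped fraction per protease–substrate barcode pair counted by paired-end Illumina sequencing.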

Row | Variant | area with substrate ENLYFCS | area with substrate ENLYFES | area with substrate ENLYFFS | area with substrate ENLYFIS | area with substrate ENLYFMS | area with substrate ENLYFPS | area with substrate ENLYFTS | area with substrate ENLYFYS | area with substrate ENLYFDS | area with substrate ENLYFHS
1 | S209Y | 0.0556 | 0.0663 | 0.048 | 0.0549 | 0.0799 | 0.0694 | 0.0564 | 0.0717 | – | –
2 | Q227D | 0.0551 | – | 0.0623 | 0.0535 | 0.0667 | 0.0629 | 0.0795 | – | 0.0552 | 0.0685
3 | Q59R | 0.0566 | 0.0683 | 0.0604 | 0.0647 | 0.0629 | – | 0.0626 | 0.0597 | – | 0.0615
4 | G214F | 0.0649 | – | – | – | 0.0609 | – | – | – | – | 0.0497
5 | F180H | 0.0526 | – | – | 0.0543 | – | – | 0.0526 | – | – | 0.0465
6 | S135H | 0.0477 | 0.0733 | 0.0729 | 0.0435 | – | 0.0709 | – | – | 0.0671 | –
7 | L99N | 0.0455 | – | 0.0699 | 0.0579 | 0.078 | 0.0786 | 0.0739 | 0.0606 | – | –
8 | L99V | 0.0525 | 0.0719 | 0.0689 | 0.0682 | – | 0.0586 | 0.0606 | – | 0.0596 | –
9 | I84H | 0.031 | – | 0.0201 | 0.0506 | 0.0617 | – | – | – | – | 0.0548
10 | D11T | 0.0023 | 0.0564 | – | – | – | 0.0433 | 0.054 | 0.0667 | 0.05 | –
11 | M125Y | 0.0653 | – | – | – | – | 0.0672 | 0.0556 | 0.0604 | – | 0.0607
12 | Q74I | 0.05 | 0.0748 | 0.0814 | – | – | – | – | – | 0.068 | –
13 | G150Y | 0.0645 | 0.0717 | 0.0566 | 0.0505 | 0.0612 | 0.0683 | 0.0618 | – | 0.051 | –
14 | V57E | 0.0493 | – | 0.0668 | 0.0579 | – | 0.0545 | 0.0596 | – | 0.0569 | –
15 | C131I | 0.0696 | 0.0605 | 0.0716 | 0.0471 | – | – | 0.038 | – | – | 0.0268
16 | D137H | 0.0596 | 0.0657 | 0.0733 | 0.0616 | 0.0676 | 0.0582 | – | – | – | 0.0705
17 | G28Y | 0.0493 | 0.0938 | – | 0.0538 | – | 0.0493 | 0.0608 | 0.0501 | – | –
18 | R204D | 0.0535 | 0.064 | 0.0682 | 0.0612 | 0.0637 | 0.0628 | 0.0509 | 0.0843 | – | –
19 | E195L | 0.0338 | – | – | – | 0.0648 | 0.0699 | 0.0567 | 0.0637 | – | 0.0566

Row | Variant | area with substrate ENLYFCS | area with substrate ENLYFES | area with substrate ENLYFFS | area with substrate ENLYFIS | area with substrate ENLYFMS | area with substrate ENLYFPS | area with substrate ENLYFTS | area with substrate ENLYFYS | area with substrate ENLYFDS | area with substrate ENLYFHS
20 | E25S | 0.0511 | 0.0618 | 0.0554 | 0.0634 | 0.0703 | 0.0632 | 0.0628 | – | 0.0809 | 0.0514
21 | T114N | 0.0713 | 0.065 | 0.059 | 0.0568 | 0.0646 | 0.0833 | 0.0859 | – | – | –
22 | V210P | 0.0655 | – | 0.0658 | 0.0534 | 0.0527 | 0.0561 | – | 0.0597 | – | –
23 | P93L | 0.0517 | – | – | – | 0.0646 | – | – | 0.0484 | – | 0.0607
24 | F163N | 0.0678 | – | – | – | – | – | – | – | 0.0627 | –
25 | G138M | 0.0688 | 0.0577 | – | – | – | 0.0648 | 0.0807 | – | – | 0.058
26 | G138F | 0.043 | – | – | – | – | – | – | – | – | –
27 | R50Y | 0.0658 | – | 0.049 | 0.0633 | 0.0873 | – | 0.0365 | 0.0527 | – | 0.0653
28 | Q194I | 0.0333 | – | 0.0648 | 0.0631 | – | 0.0519 | – | – | – | –
29 | Q194C | 0.0622 | 0.0568 | 0.0642 | 0.0607 | 0.0784 | 0.0495 | – | – | – | 0.0478
30 | T119A | 0.0595 | 0.0637 | 0.0615 | 0.0732 | 0.074 | 0.0736 | 0.0467 | – | – | 0.0575
31 | T119R | 0.0641 | – | – | – | – | – | – | – | – | –
32 | I86C | 0.0585 | – | – | 0.0312 | – | – | 0.06 | – | – | –
33 | E3A | 0.0754 | 0.0627 | 0.0676 | 0.0516 | – | 0.0611 | 0.0548 | 0.0572 | – | 0.07
34 | G35S | 0.0489 | – | – | – | 0.0489 | – | – | – | – | 0.0484
35 | F38V | 0.053 | – | – | – | 0.0592 | – | 0.0575 | 0.0541 | 0.0519 | –
36 | V78N | 0.0415 | – | 0.0692 | 0.0527 | 0.0598 | 0.0609 | 0.0512 | 0.0463 | 0.0489 | –
37 | V78E | 0.0348 | 0.0532 | 0.0663 | 0.0431 | 0.0519 | 0.0406 | 0.0506 | 0.053 | 0.065 | 0.0533

Same assay, conditions: temperature: 34 °C; time window: 0-4 h after rhamnose induction

Row | Variant | area with substrate ENLYFKS | area with substrate ENLYFLS | area with substrate ENLYFRS | area with substrate ENLYFSS | area with substrate ENLYFVS | area with substrate ENLYFWS | area with substrate ENLYFNS | area with substrate ENLYFGS | area with substrate ENLYFAS
38 | Q227D | 0.0361 | 0.0631 | 0.0583 | 0.0695 | 0.0566 | 0.0485 | – | – | –
39 | Q59R | 0.0893 | – | – | – | – | 0.0628 | 0.0411 | – | –
40 | F180H | 0.0618 | – | – | 0.0488 | – | – | 0.0666 | 0.0842 | –
41 | S135H | 0.0606 | 0.0624 | 0.0595 | 0.0569 | – | – | 0.0627 | 0.0643 | 0.0565
42 | L99N | – | – | 0.0598 | 0.0564 | – | 0.0528 | 0.0754 | – | –
43 | L99V | – | 0.0594 | 0.0411 | 0.0477 | – | – | 0.0612 | – | –
44 | I84H | 0.0572 | – | 0.0539 | 0.0549 | – | – | – | 0.0555 | –
45 | D11T | – | – | 0.0625 | – | 0.0376 | 0.0548 | – | 0.0487 | –
46 | M125Y | – | – | 0.0514 | – | 0.0775 | 0.0533 | – | – | –
47 | Q74I | – | 0.058 | 0.0406 | – | 0.067 | 0.0576 | 0.0511 | – | –
48 | G150Y | 0.0558 | 0.055 | 0.0433 | – | – | 0.0523 | 0.0432 | – | –
49 | V57E | – | – | 0.0666 | – | 0.081 | 0.0561 | 0.0743 | – | –
50 | C131I | – | – | 0.0655 | – | – | – | – | – | –
51 | D137H | 0.0583 | 0.0561 | – | – | – | – | 0.0828 | – | –
52 | G28Y | 0.0469 | 0.0634 | 0.04 | – | 0.0531 | – | 0.0694 | – | 0.0639
53 | R204D | 0.0562 | – | 0.0618 | 0.0589 | 0.0602 | 0.0368 | – | 0.0757 | –
54 | E195L | – | – | – | – | – | – | – | 0.0601 | –

Row | Variant | area with substrate ENLYFKS | area with substrate ENLYFLS | area with substrate ENLYFRS | area with substrate ENLYFSS | area with substrate ENLYFVS | area with substrate ENLYFWS | area with substrate ENLYFNS | area with substrate ENLYFGS | area with substrate ENLYFAS
55 | E25S | 0.0626 | – | 0.0644 | 0.0564 | 0.0531 | – | 0.0747 | – | –
56 | T114N | – | – | – | – | – | 0.0589 | – | – | –
57 | V210P | – | – | 0.0668 | – | – | – | – | – | –
58 | P93L | – | – | 0.0547 | – | – | – | – | – | –
59 | F163N | – | – | 0.0641 | – | – | – | – | – | –
60 | G138M | – | – | – | 0.0492 | – | – | 0.048 | – | –
61 | R50Y | 0.0711 | 0.055 | – | – | 0.0397 | – | – | 0.0807 | 0.0524
62 | Q194C | – | 0.0707 | 0.0548 | 0.0509 | – | 0.0525 | 0.073 | – | –
63 | T119A | 0.0703 | – | – | – | – | – | – | 0.0604 | –
64 | T119R | – | 0.0528 | – | – | 0.0772 | – | – | – | –
65 | I86C | – | – | 0.0651 | – | – | 0.0627 | – | – | –
66 | E3A | – | – | – | 0.0614 | 0.0363 | – | 0.0689 | – | –
67 | G35S | – | – | 0.0504 | – | – | – | – | – | –
68 | F38V | 0.04 | 0.0412 | 0.0566 | – | – | – | 0.0487 | – | –
69 | V78N | – | 0.0599 | 0.0688 | 0.0804 | – | 0.0514 | 0.0565 | – | –
70 | V78E | 0.0569 | 0.0553 | – | 0.0652 | 0.0489 | – | 0.0635 | 0.0616 | 0.047
